{"source": "PubChem BioAssay AID1508642", "about": "(National Center for Advancing Translational Sciences (NCATS), 2021)", "note": "Among all 43,000 compounds or so, about 200 (0.47%) were called active. The inconclusive results got no clear call from the source; some entries with a clear call stand among them for comparison. Calls follow the shape of the dose curve; as a rule, active = well fitted cell-killing curve with a large enough effect; inconclusive = small, poorly fitted or top-dose-only effect, or effect the other way; inactive = flat fitted curve, though single readings scatter. A potency beside an inconclusive call is a rough fit, not a confirmed value. % is scaled to controls: 0 for no effect and ±100 for the full control effect; potency is read from the fitted curve at half-maximal effect; tags tell the direction and shape of the fitted curve."}
{"assay": "Cell viability qHTS assay in S16 Pmp22-F2sN cells; also: nearly all actives have a fitted effect of over 65% in size", "conditions": "S16 Pmp22-F2sN Schwann cells viability, CellTiter-Glo, 24 h; activity change, negative = cytotoxicity: at 57.5 µM (top of the series)", "procedure,_shortened": "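S16 Pmp22-F2sN Schwann cells (500-1,000/well) in phenol-red-free DMEM with 10% FBS received 23 nL compound by pin tool for 24 h at 37 °C. Viability was then read as CellTiter-Glo luminescence after 15 min at room temperature.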"}
{"smiles": "CCN1CCC(N(Cc2ccc(F)cc2)C(=O)Nc2cccc(C(F)(F)F)c2)CC1", "Potency": "inconclusive: 39.8 µM [cytotoxic, single point]"}
{"smiles": "COc1ccc(N2CCN(C(=O)c3cc4c(=O)n(Cc5ccccc5)ccc4nc3C)CC2)cc1", "Potency": "inconclusive: 0.891 µM [cytotoxic, full curve]"}
{"smiles": "CCN(CC)c1cc(C)nc2nc(-c3ccc(C)cc3)nn12", "Potency": "inconclusive: 39.8 µM [cytotoxic, partial curve, poor fit]"}
{"smiles": "Cc1oc(-c2ccc(C(=O)NCc3ccc(N(C)C)cc3)cc2)nc1COc1ccccc1", "Potency": "inconclusive: 39.8 µM [rising, partial curve, poor fit]"}
{"smiles": "Cc1oc(-c2cccc(Cl)c2)nc1CN1CCC(C(=O)NCCCN2CCN(c3cccc(Cl)c3)CC2)CC1", "Potency": "inconclusive: 39.8 µM [cytotoxic, single point]"}
{"smiles": "Cc1ccc(C2c3[nH]c4ccccc4c3CCN2C(=O)Nc2ccc(C)c(C)c2)cc1", "note": "(centres undefined)", "Potency": "inconclusive: 39.8 µM [cytotoxic, single point]"}
{"smiles": "CCOc1ccccc1C(=O)NCc1ccc2c(c1)CCN2C(C)=O", "Potency": "inconclusive: 7.94 µM [cytotoxic, partial curve, poor fit]"}
{"smiles": "CCSc1ncc(Cl)c(C(=O)Nc2c(C(=O)Nc3cccc(C)c3)oc3ccccc23)n1", "Potency": "inactive"}
{"smiles": "CCc1ccc(C2Sc3ccccc3NC3=C2C(=O)c2ccccc23)cc1", "note": "(centres undefined)", "Potency": "inactive"}
{"smiles": "CCC(C(=O)NC1CCCCC1)n1c(SCc2ccc(F)cc2)nc2ccncc21", "note": "(centres undefined)", "Potency": "inconclusive: 39.8 µM [cytotoxic, single point]"}
{"smiles": "CC(C)c1ccc(-c2nnc3n(CCc4ccccc4)c(=O)c4ccccc4n23)cc1", "Potency": "inconclusive: 25.1 µM [cytotoxic, single point]"}
{"smiles": "O=C(COc1ccccc1-c1nnc(-c2ccccc2)o1)Nc1ccc(Br)cc1F", "Potency": "inconclusive: 3.16 µM [cytotoxic, single point]"}
{"smiles": "CC(=O)c1ccc(NS(=O)(=O)c2cc(-c3cc(C)no3)ccc2C)cc1", "Potency": "inconclusive: 3.98 µM [cytotoxic, full curve]"}
{"smiles": "O=C(Nc1ccc(F)cc1Cl)n1ncc2cc(Cl)ccc21", "Potency": "inconclusive: 22.4 µM [cytotoxic, single point]"}
{"smiles": "COc1ccc(C)cc1NC(=O)CN(c1ccccc1)S(=O)(=O)N(C)C", "Potency": "inactive"}
{"smiles": "COc1ccccc1N1CCN(C(=O)CSc2nc(-c3ccc(C(C)C)cc3)no2)CC1", "Potency": "inactive"}
{"smiles": "O=C(NCCCN1CCN(c2ccccc2)CC1)c1cc2c(s1)-c1ccccc1OC2", "Potency": "inconclusive: 39.8 µM [cytotoxic, single point]"}
{"smiles": "CCc1cccc(NC(=O)CCS(=O)(=O)c2ccc(C)cc2)c1", "Potency": "inconclusive: 20 µM [cytotoxic, partial curve, poor fit]"}
{"smiles": "COc1cccc(-c2nc(CS(=O)CC(=O)N3CCN(c4cccc(C(F)(F)F)c4)CC3)c(C)o2)c1", "note": "(centres undefined)", "Potency": "inconclusive: 35.5 µM [cytotoxic, single point]"}
{"smiles": "O=C(Nc1ccc2c(c1)N(C1CCCC1)C(=O)c1ccccc1S2)c1ccccc1", "Potency": "inconclusive: 28.2 µM [cytotoxic, single point]"}
{"smiles": "O=C(NCCC1=CCCCC1)c1ccc2c(c1)N(Cc1ccccc1)C(=O)c1ccccc1S2(=O)=O", "Potency": "inconclusive: 35.5 µM [cytotoxic, partial curve, poor fit]"}
{"smiles": "O=C(Cn1cc(SCc2ccccc2Cl)c2ccccc21)N1CCCCCC1", "Potency": "inconclusive: 39.8 µM [cytotoxic, single point]"}
{"smiles": "COc1ccc(OC)c(CNS(=O)(=O)c2ccc(-c3cc(C(F)(F)F)on3)s2)c1", "Potency": "inactive"}
{"smiles": "COc1ccc(NC(=O)CCCS(=O)(=O)c2nc(-c3ccc(OC)c(OC)c3)cc(C(F)(F)F)n2)cc1OC", "Potency": "active: 4.47 µM"}
{"smiles": "CC(=O)N1CCCc2cc(S(=O)(=O)N3CCCC(C(=O)NCc4ccc(Cl)cc4)C3)ccc21", "note": "(centres undefined)", "Potency": "inactive"}
{"smiles": "Cc1ccc(S(=O)(=O)c2nnn3c2nc(Nc2ccc(C(C)C)cc2)c2sccc23)cc1C", "Potency": "inconclusive: 6.31 µM [rising, single point]"}
{"smiles": "CCC(C(=O)NCCc1ccc(Cl)cc1)n1nc(C)c2c(C)n(-c3ccccc3)nc2c1=O", "note": "(centres undefined)", "Potency": "inconclusive: 10 µM [cytotoxic, partial curve]"}
{"smiles": "Cc1cccc(CS(=O)(=O)Cc2ccc(C(=O)NCc3ccc(Cl)cc3)o2)c1", "activity change, negative = cytotoxicity": "inconclusive: -39.5% [cytotoxic]"}
{"smiles": "Cc1cc(NC(=O)CN(C)S(=O)(=O)c2ccc3c(c2)CCC(=O)N3)ccc1Br", "Potency": "inconclusive: 20 µM [cytotoxic, partial curve, poor fit]"}
{"smiles": "CCOc1ccc(CCNC(=O)c2cc3c(-c4cccc(OC)c4)nn(C)c3s2)cc1OCC", "Potency": "inconclusive: 20 µM [cytotoxic, single point]"}
{"smiles": "O=C(CSc1oc(-c2ccco2)nc1S(=O)(=O)c1ccc(Cl)cc1)c1ccccc1", "Potency": "inconclusive: 31.6 µM [cytotoxic, partial curve, poor fit]"}
{"smiles": "Cc1ccc2nc(/C(C#N)=C/c3ccc(-c4cccc(Cl)c4)o3)[nH]c2c1", "Potency": "inactive"}
{"smiles": "COc1ccc(-c2noc(CSc3nnc(-c4ccncc4)n3-c3ccccc3)n2)cc1", "Potency": "inconclusive: 20 µM [cytotoxic, partial curve, poor fit]"}
{"smiles": "COC(=O)c1c(NC(=O)c2ccc(S(=O)(=O)N3CCCCC3C)cc2)sc2c1CCN(C(C)C)C2", "note": "(centres undefined)", "Potency": "inconclusive: 39.8 µM [cytotoxic, single point]"}
{"smiles": "CCOC(=O)c1cc(-c2ccc(F)cc2)n(CCC(=O)Nc2ccccc2OC)c1C", "Potency": "inconclusive: 31.6 µM [cytotoxic, single point]"}
{"smiles": "Cc1cccc(Oc2nc3c(C)cccn3c(=O)c2/C=C(\\C#N)c2nc3ccccc3s2)c1", "Potency": "inconclusive: 7.94 µM [cytotoxic, partial curve, poor fit]"}
{"smiles": "CCOC(=O)c1ccc(NC(=O)c2nc(S(=O)(=O)Cc3ccccc3)ncc2Cl)cc1", "Potency": "active: 5.01 µM"}
{"smiles": "Cc1cccc(-c2nc3cc(NC(=O)Cc4ccc(Cl)cc4)ccc3o2)c1", "Potency": "inactive"}
{"smiles": "CCN(CC)CCOC(=O)c1ccc(NC(=O)c2nn(-c3ccc(C)cc3)c(=O)c3c2c2ccccc2n3C)cc1", "Potency": "active: 4.47 µM"}
